Reference: PubChem BioAssay AID485294 (National Center for Advancing Translational Sciences (NCATS), 2010)
Screen size: about 370,000 compounds; about 150 (0.041%) were called active. This list was built around the results that the source calls inconclusive (neither active nor inactive); the mix of calls is not that of the screen. Calls come from the whole dose curve; as a rule, active = well fitted inhibition curve with a large enough effect; inconclusive = small, poorly fitted or top-dose-only effect; inactive = flat fitted curve, though single readings scatter. No potency is given beside an inconclusive call; the fits are too rough.

Target: Beta-lactamase (Escherichia coli (strain K12)) (UniProt P00811)
UniProt P00811, sequence (P00811 whole entry, looked up): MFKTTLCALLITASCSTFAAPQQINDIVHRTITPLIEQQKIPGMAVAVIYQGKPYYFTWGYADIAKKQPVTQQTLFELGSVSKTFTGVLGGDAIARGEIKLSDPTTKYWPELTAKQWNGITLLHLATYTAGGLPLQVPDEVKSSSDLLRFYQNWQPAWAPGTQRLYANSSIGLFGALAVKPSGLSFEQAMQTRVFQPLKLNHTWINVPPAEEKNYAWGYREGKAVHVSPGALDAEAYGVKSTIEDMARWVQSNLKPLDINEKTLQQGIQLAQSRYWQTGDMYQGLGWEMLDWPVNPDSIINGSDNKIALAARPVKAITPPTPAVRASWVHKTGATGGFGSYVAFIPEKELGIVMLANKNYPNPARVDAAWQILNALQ
Test: qHTS Inhibitors of AmpC Beta-Lactamase (assay with detergent); note: nearly all actives have a fitted effect of over 25% in size
Conditions: AmpC hydrolysis of nitrocefin, absorbance 480 nm, 0.01% Triton; series mostly up to 114 µM
Procedure, shortened: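 20 mM phosphate pH 7.0 + 0.01% (detergent screen) or 0.0001% Triton X-100; 5.3 nM AmpC reagent; cpd preinc 15 min RT; nitrocefin (800 uM stock) to start; A480 q20 s × 4 min; Activity was normalised to no-enzyme and no-compound control wells.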
Potency is the fitted concentration of half-maximal effect; tags give direction and shape of the fitted curve.

SMILES | Potency
Cc1oc2cc3oc(=O)cc(C)c3cc2c1C | inactive
CCN1C(=O)CC(c2ccccc2)CC1=O | inconclusive [inhibitor, partial curve, poor fit]
Cc1ccc(S(=O)(=O)c2nc(S(C)(=O)=O)sc2N(C)C)cc1 | inactive
Cc1ccc(OCc2cc(C(=O)N(C)CCc3nc4ccccc4[nH]3)no2)cc1C | inconclusive [inhibitor, full curve, poor fit]
CCNS(=O)(=O)c1cc(S(C)(=O)=O)ccc1Cl | inconclusive [inhibitor, full curve, poor fit]
OC(C#CCN1CCCC1)(c1ccccc1)c1ccccc1 | inconclusive [inhibitor, partial curve, poor fit]
O=C(CNc1ccc2ccccc2c1)N/N=C/c1ccc(OC(=O)/C=C/c2ccco2)cc1 | inconclusive [inhibitor, full curve, poor fit]
CCOc1ccc2nc(NC(=O)CN3CCC(n4nnc5cc(F)ccc54)CC3)sc2c1 | inconclusive [inhibitor, partial curve]
COc1ccc(OCc2cc(C(=O)N(C)CCC3CCOCC3)no2)c(Cl)c1 | inactive
NC(=O)c1c(NC(=O)CSc2nnc(-c3ccccc3)n2CC2CCCO2)sc2c1CCC2 (configuration not stated) | inconclusive [inhibitor, full curve, poor fit]
COc1ccc(-c2csc(N(CCCN(C)C)C(=O)c3ccc(C(C)(C)C)cc3)n2)cc1 | inactive
COCc1c(C(=O)N/N=C/c2ccco2)nnn1-c1nonc1N | inconclusive [inhibitor, full curve]
COc1ccc(C(=O)COC(=O)COc2cccc3c2OC(C)(C)C3)c(OC)c1 | inconclusive [inhibitor, full curve]
CN1c2ccccc2N(C)C1c1ccc2c(c1)OCO2 | inconclusive [inhibitor, full curve]
CCCn1c(SCC(=O)Nc2nnc(CC)s2)nc2c1c(=O)n(C)c(=O)n2C | inconclusive [inhibitor, full curve, poor fit]
COc1cc(CN2CCN(c3ccccc3C)CC2)cc([N+](=O)[O-])c1O | inconclusive [inhibitor, full curve]
CC1Cc2ccccc2N1C(=O)COC(=O)c1ccc(S(=O)(=O)N(C)C)cc1 (configuration not stated) | inconclusive [inhibitor, partial curve]
COCc1cc(C)nc(N2CCOCC2)c1C#N | inconclusive [inhibitor, partial curve, poor fit]
CCN1CCN(c2ccc(NC(=O)CCc3c(C)nc4c(-c5ccccc5)c(C)nn4c3C)cc2)CC1 | inconclusive [inhibitor, full curve, poor fit]
O=C(Nc1ccc(S(=O)(=O)N2CCCCC2)cc1)c1ccncc1 | inactive
O=c1[nH]c(=O)n(Cc2ccccc2Cl)c(O)c1/C=C1/C=CC=N1 | inconclusive [inhibitor, full curve]
COc1ccc(-c2oc3ncn4nc(-c5ccccc5Cl)nc4c3c2-c2ccc(OC)cc2)cc1 | inactive
CCCC(O)(CCN1CCOCC1)c1ccc(Br)cc1 (configuration not stated) | inactive

SMILES | Potency
Cc1cc2c(ccc3[nH]onc32)n1 | inconclusive [inhibitor, full curve, poor fit]
CCCCCC(=O)NNC1=NCC(Cc2cccc(Cl)c2)S1 (configuration not stated) | inconclusive [inhibitor, partial curve]
C/C(=N/OCc1ccc(Br)cc1)c1ccccn1 | inconclusive [inhibitor, full curve, poor fit]
Cc1nn(CCCC(=O)Nc2cccnc2Cl)c(C)c1[N+](=O)[O-] | inactive
COC(=O)C1=C(C)N=C2SC(C)C(=O)N2C1/C=C/c1ccccc1OC (configuration not stated) | inconclusive [inhibitor, single point]
Cc1cccc(CSc2ccc(S(=O)(=O)N3CCCC3)cn2)c1 | inconclusive [inhibitor, partial curve, poor fit]
Cc1ccc(S(=O)(=O)N2CCN(C(=O)COC(=O)c3c(C)cc(C)cc3C)CC2)c(C)c1 | inconclusive [inhibitor, partial curve, poor fit]
CC(CNC1CCCCC1)OC(=O)c1ccccc1 (configuration not stated) | inconclusive [inhibitor, full curve]
Cc1ccc(C)c(N2CCN(C(=O)CCn3c(=O)[nH]c4ccccc4c3=O)CC2)c1 | inactive
O=c1c2ccccc2nc(-c2ccc(Cl)cc2Cl)n1O | inconclusive [inhibitor, full curve, poor fit]
COc1ccccc1C1CC(c2ccco2)=NN1S(C)(=O)=O (configuration not stated) | inactive
O=C1c2cccc3cccc(c23)N1CN1CCN(c2ccccn2)CC1 | inconclusive [inhibitor, full curve]
CCOC(=O)C1CCN(C(=O)CCn2c(=O)c3cccn3c3cccnc32)CC1 | inactive
CC1C(=O)C(C)C(c2ccco2)NC1c1ccco1 (configuration not stated) | inconclusive [inhibitor, full curve, poor fit]
COc1ccccc1-n1cnc2cc(NS(=O)(=O)c3ccc(Br)cc3)ccc21 | inactive
Cc1ccc(Nc2nc(-c3ccccc3)c(CC(=O)O)s2)cc1 | inconclusive [inhibitor, single point]
CN1/C(=C\C(=S)NC(=O)c2ccccc2Cl)C(C)(C)c2ccccc21 | inactive
COc1cc(C(=O)NNC(=O)COc2cccc(F)c2)ccc1OCC(=O)N1CCOCC1 | inconclusive [inhibitor, partial curve]
O=C1CC2(CCN(C(=O)c3ccc(Cl)cc3)CC2)Oc2ccccc21 | inconclusive [inhibitor, single point]
CCOC(=O)c1cccc(NC(=O)C2CCN(c3ncnc4c3nc3n4CCCCC3)CC2)c1 | inconclusive [inhibitor, full curve, poor fit]
COc1cc(C2C(C(=O)OC(C)C)=C(C)Nc3ncnn32)cc(OC)c1OC (configuration not stated) | inconclusive [inhibitor, partial curve, poor fit]
O=C(O)c1cn(-c2ccccc2)nc1-c1ccncc1 | inconclusive [inhibitor, full curve, poor fit]
CCCNC(=O)c1ccc2nc(-c3ccccc3)c(-c3ccccc3)nc2c1 | inactive

SMILES | Potency
Cc1cc(C)n(C(=O)c2ccncc2)n1 | inconclusive [inhibitor, full curve, poor fit]
CS(=O)(=O)N1CCN(c2ccccc2NC(=O)c2ccc3c(c2)OCCO3)CC1 | inconclusive [inhibitor, partial curve]
CC1(C)CC(=O)C=C(Nc2cccc(O)c2)C1 | inconclusive [inhibitor, full curve]
CC(=O)NCCNC(=O)c1cccc(NS(=O)(=O)c2ccc3c(c2)OCCO3)c1 | inconclusive [inhibitor, full curve]
CN(C)C(=O)COc1ccc(S(=O)(=O)c2ccc(OCC(=O)N(C)C)cc2)cc1 | inactive
O=C(CSc1nc(=O)[nH]c2c1CCC2)NCc1ccc(Cl)cc1 | inactive
Cc1ccc2c(c1)c1c3n2CCCN(Cc2ccccc2)C3CCC1 (configuration not stated) | inconclusive [inhibitor, partial curve, poor fit]
CCNS(=O)(=O)c1ccc(CCC(=O)Nc2ccccc2)cc1 | inconclusive [inhibitor, full curve]
CC(=O)Nc1ccc(Nc2nc(C(F)(F)F)nc3c2nnn3Cc2ccccc2Cl)cc1 | inactive
CSCC(C)N1CCC(N2CCC(C(=O)NCc3ccccn3)CC2)CC1 (configuration not stated) | inconclusive [inhibitor, partial curve]
O=C(CCS(=O)(=O)c1cccc2nonc12)Nc1cccc(F)c1 | inconclusive [inhibitor, partial curve, poor fit]
Cc1cccc(C)c1OCCn1c(C2CC(=O)N(Cc3ccc(F)cc3)C2)nc2ccccc21 (configuration not stated) | inactive
Cc1ccc(-c2nnc(N3CCN(c4ccccn4)CC3)c3ccccc23)cc1 | inactive
Cc1ccn(CC(=O)N2CCCC(N3CCN(c4ccccc4F)CC3)C2)n1 (configuration not stated) | inconclusive [inhibitor, full curve, poor fit]
CCN(CC(=O)Nc1c(F)cccc1F)C(=O)CCc1nc2cc(S(=O)(=O)N3CCOCC3)ccc2n1C | inconclusive [inhibitor, partial curve, poor fit]
O=C(Cn1ncc2c1-c1ccccc1OC2)N(Cc1ccco1)C1CCCCC1 | inconclusive [inhibitor, full curve, poor fit]
CCOP(=O)(OCC)C(NC(=O)NS(=O)(=O)c1ccc(C)cc1)c1ccccc1 (configuration not stated) | inconclusive [inhibitor, full curve, poor fit]
CCCCN(C)C(=O)c1cc2cc3ccc(OC)cc3nc2s1 | inconclusive [inhibitor, single point]
COc1cccc(C2c3[nH]c4ccccc4c3C[C@H]3C(=O)N(CCCO)CC(=O)N23)c1OC (some centres not stated) | inactive
C/C(=N\Nc1nc(-c2ccc(C)cc2C)cs1)c1cc2ccccc2oc1=O | inconclusive [inhibitor, partial curve, poor fit]
Cc1cc(C)c(C)c(S(=O)(=O)N2CCN(C(=O)CCC(=O)N3CCOCC3)CC2)c1C | inactive
